{"source": "PubChem BioAssay AID743255", "about": "(National Center for Advancing Translational Sciences (NCATS), 2014)", "note": "The campaign covered roughly 390,000 compounds. About 910 (0.23%) were called active. About 5% were inconclusive and are not listed. The call rests on the fitted dose curve; in most records, active means well fitted inhibition curve with a large enough effect; inconclusive means small, poorly fitted or top-dose-only effect; inactive means no such curve, though single readings can be large or run the other way. This is a selection; strong and weak results do not stand in their true shares. On the % scale 0 is the no-effect control and ±100 the full control effect; potency means the concentration at half of the fitted maximal effect.", "data": [{"biological_target": "Ubiquitin carboxyl-terminal hydrolase 1 (Homo sapiens) (UniProt O94782)", "sequence (O94782 whole entry, looked up)": "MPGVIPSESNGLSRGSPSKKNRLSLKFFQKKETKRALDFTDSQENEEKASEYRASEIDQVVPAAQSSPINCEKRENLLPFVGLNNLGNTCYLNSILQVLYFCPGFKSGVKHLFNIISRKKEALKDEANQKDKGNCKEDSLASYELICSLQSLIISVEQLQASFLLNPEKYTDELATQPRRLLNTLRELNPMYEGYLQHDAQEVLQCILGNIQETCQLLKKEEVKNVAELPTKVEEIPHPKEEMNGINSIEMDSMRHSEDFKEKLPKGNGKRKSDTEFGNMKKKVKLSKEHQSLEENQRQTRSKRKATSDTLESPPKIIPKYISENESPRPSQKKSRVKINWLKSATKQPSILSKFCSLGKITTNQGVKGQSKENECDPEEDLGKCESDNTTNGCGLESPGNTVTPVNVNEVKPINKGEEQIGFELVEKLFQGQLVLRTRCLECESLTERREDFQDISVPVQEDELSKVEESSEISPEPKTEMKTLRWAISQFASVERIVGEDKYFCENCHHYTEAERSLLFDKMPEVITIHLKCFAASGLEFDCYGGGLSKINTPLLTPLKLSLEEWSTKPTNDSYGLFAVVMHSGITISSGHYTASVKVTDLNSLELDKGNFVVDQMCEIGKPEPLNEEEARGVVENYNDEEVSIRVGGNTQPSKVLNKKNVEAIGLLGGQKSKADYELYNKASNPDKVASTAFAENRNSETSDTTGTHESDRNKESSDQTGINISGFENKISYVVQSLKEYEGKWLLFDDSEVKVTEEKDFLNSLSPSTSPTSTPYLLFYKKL", "test": "Inhibitors of USP1/UAF1: Primary Screen; further: nearly all actives have a fitted effect of over 60% in size", "details": "recombinant USP1/UAF1, Ub-Rhodamine cleavage fluorescence; activity change, negative = inhibition: at 57.1 µM (top of the series)", "procedure,_shortened": "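In this screen, compounds sit with the deubiquitinase complex (1nM) for 15 min at room temperature before Ub-Rho is added at 150nM final. Fluorescence rise is then followed for 6 reads every 60 seconds.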", "values": [{"molecule": "CCc1ccc(NC2=CC(=O)C(=O)c3ccccc32)cc1", "Potency": "active: 28.2 µM"}, {"molecule": "C[C@H](CO)N1C[C@H](C)[C@@H](CN(C)C(=O)c2cc(-c3ccccc3)on2)OCc2cnnn2CCCC1=O", "activity change, negative = inhibition": "inactive: -11.9%"}, {"molecule": "CCc1cccc(C)c1NC(=O)CC1Oc2ccc(C)cc2NC1=O", "note": "(configuration not stated)", "activity change, negative = inhibition": "inactive: -16.5%"}, {"molecule": "COC(=O)c1cc2occc2n1Cc1nc(-c2ccccc2F)oc1C", "activity change, negative = inhibition": "inactive: -24.9%"}, {"molecule": "C=CC[C@@H](CC(=O)N[C@H](CO)Cc1ccccc1)C(=O)N[C@@H](COC(=O)[C@@H](CC=C)CC(=O)OC(C)(C)C)Cc1c[nH]c2ccccc12", "activity change, negative = inhibition": "inactive: -29.1%"}, {"molecule": "N#C/C(=C/c1ccc(N2CCOCC2)o1)c1nc2ccccc2[nH]1", "Potency": "active: 25.1 µM"}, {"molecule": "COc1ccc(CNC(=O)CN2C(=O)COc3ccc(S(=O)(=O)NC4CCCC4)cc32)cc1", "activity change, negative = inhibition": "inactive: -23%"}, {"molecule": "Cc1nc2scc(C)n2c(=O)c1S(=O)(=O)NCc1ccccc1Cl", "activity change, negative = inhibition": "inactive: -6.78%"}, {"molecule": "Cn1cccc1/C=C1\\SC(=S)N(Nc2ccccc2)C1=O", "activity change, negative = inhibition": "inactive: 43.6%"}, {"molecule": "O=C1OC[C@@H]2CCCN2C(=O)[C@@H](CC(=O)N(CCO)Cc2ccccc2)C/C=C\\CC[C@H]1Cc1ccc(F)cc1", "activity change, negative = inhibition": "inactive: -31.3%"}, {"molecule": "COC1=CC(=O)c2c(ccc3ncnc(N)c23)C1=O", "Potency": "active: 0.891 µM"}, {"molecule": "CCOC(=O)N1CCN(S(=O)(=O)N2CCCC(C(=O)NCc3cc(OC)ccc3OC)C2)CC1", "note": "(configuration not stated)", "activity change, negative = inhibition": "inactive: -12.5%"}, {"molecule": "COc1cccc(S(=O)(=O)N(C)C[C@H]2OCc3cnnn3CCCC(=O)N([C@@H](C)CO)C[C@H]2C)c1", "activity change, negative = inhibition": "inactive: -17.3%"}, {"molecule": "COc1ccc(C(=O)NC(=S)NNC(=O)CCc2ccccc2)cc1", "activity change, negative = inhibition": "inactive: 31.1%"}, {"molecule": "CCN(CC)S(=O)(=O)c1ccc(C(O)=C(C#N)c2nc3ccccc3n2C)cc1", "activity change, negative = inhibition": "inactive: -23.7%"}, {"molecule": "COc1cc(N=Cc2c(O)c3ccccc3oc2=O)c(OC)cc1Cl", "activity change, negative = inhibition": "inactive: -30.5%"}, {"molecule": "N#C/C(=C\\c1ccc(-c2ccccc2C(=O)O)o1)c1nc2ccccc2[nH]1", "activity change, negative = inhibition": "inactive: -4.4%"}, {"molecule": "COc1cccc(CNC(=O)c2nnn(CC(=O)Nc3cc(Cl)ccc3C)c2N)c1", "activity change, negative = inhibition": "inactive: -10.7%"}, {"molecule": "C#CCNC(=O)C1=C[C@@H](c2ccc(C(F)(F)F)cc2)[C@H](CCCO)[C@@H](OCC)O1", "activity change, negative = inhibition": "inactive: -15.9%"}, {"molecule": "Cc1cc(C)cc(NC(=O)Cn2nnc(C(=O)NCCc3ccccc3)c2N)c1", "activity change, negative = inhibition": "inactive: -15.8%"}, {"molecule": "Nc1ccc(C(=O)O)cc1", "Potency": "inactive"}, {"molecule": "CC(C)(C)S(=O)(=O)N1C[C@@H]2CC/C=C\\C/C(c3ccccc3)=C\\2[C@H]1CCO", "activity change, negative = inhibition": "inactive: -22.4%"}, {"molecule": "CC(C)c1ccc2c(c1)CC[C@H]1[C@](C)(CN)CCC[C@]21C", "Potency": "inactive"}, {"molecule": "Cc1ccc(S(=O)(=O)NC(=O)Nc2ccc(N(C)C)cc2)cc1", "Potency": "active: 17.8 µM"}, {"molecule": "C=CCOc1cccc(C2C(C(=O)c3ccc(C)o3)=C(O)C(=O)N2c2nccs2)c1", "note": "(configuration not stated)", "activity change, negative = inhibition": "inactive: 33.8%"}, {"molecule": "CCc1ccccc1NC(=O)c1cc(-c2ccc3c(c2)OCO3)on1", "activity change, negative = inhibition": "inactive: -7.97%"}, {"molecule": "COc1ccc(CNC(=O)CN2C(=O)COc3ccc(S(=O)(=O)N4CCOCC4)cc32)cc1", "activity change, negative = inhibition": "inactive: -22.9%"}, {"molecule": "Cc1cccc(N2CCN(C(=O)c3ccc4c(c3)c(C)c(C)n4C)CC2C)c1", "note": "(configuration not stated)", "activity change, negative = inhibition": "inactive: -25.4%"}, {"molecule": "C=CC[C@H](CC(=O)N[C@H](CO)Cc1ccccc1)C(=O)N[C@@H](COC(=O)[C@@H](CC=C)CC(=O)OC(C)(C)C)Cc1c[nH]c2ccccc12", "activity change, negative = inhibition": "inactive: -21.8%"}, {"molecule": "C[C@H]1CN([C@@H](C)CO)C(=O)CCCn2nncc2CO[C@H]1CN(C)S(=O)(=O)c1ccc(Oc2ccccc2)nc1", "activity change, negative = inhibition": "inactive: -24.1%"}, {"molecule": "CN(C)c1ccc(C(CNS(=O)(=O)c2ccc(F)cc2)N2CCc3ccccc32)cc1", "note": "(configuration not stated)", "activity change, negative = inhibition": "inactive: 65.7%"}, {"molecule": "Cc1ccc2cccc(Oc3ncnc4scc(-c5ccc(Cl)cc5)c34)c2n1", "Potency": "active: 14.1 µM"}, {"molecule": "COc1cccc(-n2nnc(-c3nc(-c4ccccc4F)no3)c2C)c1", "activity change, negative = inhibition": "inactive: 44.5%"}, {"molecule": "CCOCCCN(Cc1ccco1)C(=O)c1cc2c(=O)[nH]c3ccc(C)cc3c2s1", "activity change, negative = inhibition": "inactive: -6.74%"}, {"molecule": "CC(C)c1ccc(OCC(O)CN2CCN(c3ccc(F)cc3)CC2)cc1", "note": "(configuration not stated)", "activity change, negative = inhibition": "inactive: 43%"}, {"molecule": "Cc1c(C(C)CCCO)oc(=O)c2c1Oc1c(C)c(C(C)C[C@H](C)O)oc(=O)c1C2", "note": "(some centres not stated)", "activity change, negative = inhibition": "inactive: -14.7%"}, {"molecule": "CCOC(=O)c1ccc(NC(=O)CC2NCCNC2=O)cc1", "note": "(configuration not stated)", "activity change, negative = inhibition": "inactive: 3.39%"}, {"molecule": "CC1CCCN(CCCNC(=O)CN2C(=O)CSc3ccc(S(=O)(=O)N4CCOCC4)cc32)C1", "note": "(configuration not stated)", "activity change, negative = inhibition": "inactive: -1.77%"}, {"molecule": "C[C@H]1COC(=O)[C@@H](CC(=O)OC(C)(C)C)C/C=C\\C[C@@H](CC(=O)N(CCO)Cc2ccccc2)C(=O)N1", "activity change, negative = inhibition": "inactive: -9.2%"}, {"molecule": "Cc1cccc(CS(=O)(=O)c2ncc(Cl)c(C(=O)NCc3ccccc3)n2)c1", "activity change, negative = inhibition": "inactive: -12.4%"}, {"molecule": "CCN1/C(=C\\c2ccc3cc(C)ccc3[n+]2CC)Sc2cc(C)c(C)cc21", "activity change, negative = inhibition": "inactive: -14.9%"}, {"molecule": "COC(=O)C1=COC(OC2OC(CO)C(O)C(O)C2O)C2C1C=CC2(O)CO", "note": "(configuration not stated)", "activity change, negative = inhibition": "inactive: -15%"}]}]}
